From the supplement of paper PMC11417369 come the findings set out here.

Some of the results follow.

The test system of the experiment is PfSIP2 AP2 domain 1 (GST-tagged). Description: gcPBM binding intensity (ln(normalized median fluorescence intensity)); higher = stronger DNA binding. Put shortly:
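Binding intensity is defined as the maximum Masliner-normalised natural-log median intensity across replicate spots for either probe orientation. It was measured on an Agilent 4 × 180k array of primer-extended double-stranded 36-bp intergenic genomic probes and negative controls, to which GST-tagged P. falciparum DNA-binding domains made in E. coli were applied for 1 h in 1× PBS with 1% milk, 0.2 mg/ml BSA, 0.5% salmon testes DNA and 0.03% Triton X-100. Detection was by Alexa488 anti-GST antibody and scanning at 488 nm.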
As for “TCCTAATATTTGTCAAATTTCAAAATAAATAAAATG [XGTACX_negctrl_site540]”, the “gcPBM binding intensity (ln)” value was determined as 6.88.
For “TAATTAAAATCATATACACACCCATATATATATATA [CACACA_site8524]” the value was 9.1.
Take “TATATATATATGTACACACACACATATAAATAAATA [CACACA_site443]”: the “gcPBM binding intensity (ln)” value amounted to 9.18.
The value for “TAAAAGGGGATATATGAACACACAAAAAAAAAATAT [CACACA_site8940]” was 7.13; that for “TTAAAAAAAAAAAAAAGTACATAAGTATATATAATA [XGTACX_site4295]” was 7.55.
The value for “CATATTTTTTCTTAAACACACACATATATATATATA [CACACA_site8920]” was 9.03.
For the sequence “ATATTAAGTTTTATTACACACTCTCAATTTTTATTT [CACACA_site4206]”, the “gcPBM binding intensity (ln)” value is 6.98.
For “TAAATGTTTCTCAAAAGTACACATGTGATATTTCTT [XGTACX_site2065]”, the “gcPBM binding intensity (ln)” value was found to be 6.84.
The value for “TATATATAATTATAAGAACACACATATATATATATA [CACACA_site8786]” was 9.52.
Turning to “TACAAATATAGATGCACACACATATAGGTATATGTG [CACACA_site7439]”, the “gcPBM binding intensity (ln)” value was found to be 7.48.
As for “ATATATTTCTGTCAAGCACACATAATATTAATATAT [CACACA_site7993]”, the “gcPBM binding intensity (ln)” value was found to be 7.24.
For “AATGATACTTAGGGGCATGTCTCTGGGGGCATAACC [CACACA_negctrl_site591]” the value was 7.8.
The value for “CATATTATATTTTCATGTACACATAACATATTTATA [XGTACX_site4787]” was 7.27.
The value for “GTTATAAACAAAATAAATATATGAATATATAATAAT [XGTACX_negctrl_site96]” was 6.96; that for “ATATAGTAAATGTTCACACATACAAATATATATATA [CACACA_site5518]” was 8.71; that for “AAGTTTTCTTAAAGCTGTACTTTTTAAAAATAAAAT [XGTACX_site7716]” was 6.73.
Take “TTTAACATAAATTAAACACACAATAAAATACATTAA [CACACA_site6699]”: the “gcPBM binding intensity (ln)” value was 6.87.
The value for “CATAAATACAGATATACACACATATATATATATATA [CACACA_site4528]” was 9.67; that for “ATAATACATATAGAAGGTACACTATTATTTTCCTGA [XGTACX_site903]” was 6.8.
For GAGGTACATTAATTAGTGCATTAAAATTTTTATCCT the value was 8.39.
For the sequence “ATTATCCATGCATTTACACACACACTAATAAAAATT [CACACA_site9358]”, the “gcPBM binding intensity (ln)” value is 7.99.
For “TAATTTCTTATGTATTGTACAAATAATATATTATTT [XGTACX_site3066]” the value was 7.02.
For “ATTCAAAATAATCACAGTACACATGAGATTATCTTT [XGTACX_site2197]” the value was 6.8.
With “ACTTCATAAACATTTTGTACGTATGTATCTTTTTAT [XGTACX_site7012]”, the “gcPBM binding intensity (ln)” value came out at 7.29.
The value for “TTAATATGGAAATGTTGTACATTTCTTGAAGCATTC [XGTACX_site525]” was 6.69; that for “TTATTGAAAAACATAATATCTAAGAGGGTAATATAT [GTGCAC_negctrl_site599]” was 6.84.
As to “TGTATTATTAATATTTGTACGTAATAATAAAAACAT [XGTACX_site3716]”, the “gcPBM binding intensity (ln)” value turned out to be 7.02.
The value for “TGGAAACAAAAACACACACACAAAAAAAAAAAAAAA [CACACA_site3209]” was 6.86; that for “TCCTTAGAAATATTGATCATAAACTGGAAAGGTATA [XGTACX_negctrl_site354]” was 6.95; that for “GAAATATATAAATTGACACACACATATATACATATA [CACACA_site8323]” was 7.02.
For “ATTTATCCAAAAAAATGTACAGGATAATTTGTTCAT [XGTACX_site7737]” the value was 6.88; for “TATTATGCCTTTAATATACACACTAATATTTTTTTG [CACACA_site2045]”, 6.92; for “TATAAAAATTAATATTGTACGTTTTATGAAAATAAA [XGTACX_site8237]”, 6.93.
For “CATAATACCTATAACACACACAATTATACATAAACT [CACACA_site7506]”, the “gcPBM binding intensity (ln)” value was found to be 7.15.
In the case of “GGGTTCAATTTAAAGAGTACAAAAAATGTAGGTCAT [XGTACX_site5290]”, the “gcPBM binding intensity (ln)” value was determined as 7.07.
With “TTTTAATAAACAAAACGTACACATTATTATTATATA [XGTACX_site335]”, the “gcPBM binding intensity (ln)” value stood at 7.01.
The value for “TTTGTAGTTTGCACATGTACACATTTCAAAATAAAG [XGTACX_site7568]” was 7.49.
For “AATATATACATATATTGTACATATAGTTTCTTGCAT [XGTACX_site7871]” the value was 7.05; for TTTTTTTTTTTGTGGGTGCGTTTATAAAAACAGGAA, 11.1.
For “TTTTTTTCTTGTTTTAAATAATATACTGGAAAAAAA [CACACA_negctrl_site585]” the value was 6.9.
As for “AGAGAGAAAGTTATAACATGCAACAATTTTTAGAAC [TGCATGCA_site96]”, the “gcPBM binding intensity (ln)” value came to 6.92.
Turning to “TTTCCATATTGTGGATGTACGTTTTGAGGTTTTTAC [XGTACX_site3362]”, the “gcPBM binding intensity (ln)” value worked out at 7.1.
For “ATATATATTTCTTAAAGTACATAATAATAAAAATAT [XGTACX_site8981]” the value was 7.12.
For “ATAATTATTAAGAGAACATGCAAAATATATATGTTT [TGCATGCA_site503]” the value was 6.95; for “AAAGCACCCAGGCACACACACAAAGGAAAAGAAAAA [CACACA_site232]”, 8.53.
As for “ATATATATATATATTTGTACGTATTATGTATTTTTT [XGTACX_site3530]”, the “gcPBM binding intensity (ln)” value came out at 9.57.
The value for “AATACAATAAAATAGTGTACATATATATTATGTATA [XGTACX_site8258]” was 6.93; that for “TTAAAATATGATATATGTACATAATTACTAAAAACA [XGTACX_site276]” was 7.14.
The value for “GAATAAATTAAAAACGCATGTATCATTACTACATAA [TGCATGCA_site111]” was 6.59; that for “TTTATATTATACTATACATGCATATAATAAAGGTCA [TGCATGCA_site934]” was 6.91; that for “AATAGAATAATCCTTACACACACACGCGCACGAATA [CACACA_site6365]” was 7.3.
The value for “ATTTTATTTTTTTGTGATAATTGATTTATATATTGT [TGCATGCA_negctrl_site563]” was 6.94; that for “ATTATTTCTTTGTGATGTACAAATAAACATGTTGGT [XGTACX_site5636]” was 7.14; that for “TATATATTACATTGTTGTACATATATATTATATATA [XGTACX_site60]” was 7.15.
As for “ATTCATTTTATTTTTTCACACACACCGATATATATA [CACACA_site9097]”, the “gcPBM binding intensity (ln)” value came out at 7.49.
The value for “ACCCCCATATTCTTTTTACACACTTGAATAAAAAAT [CACACA_site8319]” was 7.63.
Take “ATTTTTCAATTATGTAGTACATTGATATTTTCATTT [XGTACX_site5369]”: the “gcPBM binding intensity (ln)” value stood at 7.02.
The value for “TTTATATTTATATTGGGTACATAAAAAGCTTGAAAT [XGTACX_site8248]” was 7.19; that for “ATTTTTATTCTTATTACACACCTAAATATAAAATAT [CACACA_site2064]” was 7.33.
For “TGTGTTCATATATGCACACGCATATATATTATTGTT [CACACA_site3822]” the value was 7.02; for TGTGTCCATTGAACAGTGCAATAAAAACTTTTACAT, 7.96.
In the case of “ATAAATATGGAGCACACACACATAAACATACATATA [CACACA_site421]”, the “gcPBM binding intensity (ln)” value was 7.33.
In the case of “AAAAAAAAAAAACACACACACACACCGATACATACA [CACACA_site8849]”, the “gcPBM binding intensity (ln)” value turned out to be 7.09.
For “TTTTTTTTTTTGTGGTGTACCTTTATTTCCTTTTAG [XGTACX_site6934]” the value was 6.96; for “AAAGGGGAAAATATTATACATATAATAAATCCGTAT [XGTACX_negctrl_site355]”, 6.91.
As for “AGTAATAAAAGTAGAAGTACAATACTTCAAAGATAT [XGTACX_site8562]”, the “gcPBM binding intensity (ln)” value is 7.3.
For “GTTCTAAAAGTTAATGCATGTTATAAGTTTCCCTCT [TGCATGCA_site94]” the value was 6.92; for “TATTTCAAAATATGGGTGCAGTTCTTCATGATATAT [GTGCAC_site9658]”, 10.7.
As to “ATGTATATATTTACGTGTACATATTCATGTGATATC [XGTACX_site5871]”, the “gcPBM binding intensity (ln)” value worked out at 7.
Take “TTATACTTTGGGTGGTGTACTATATTATGCTTATAA [XGTACX_site1106]”: the “gcPBM binding intensity (ln)” value came out at 7.47.
The value for “TGCTATTTTTTCCTTTTTTTGTATCACAATCATATA [CACACA_negctrl_site1576]” was 6.97; that for “ATTAAACATAAATATGCACACATATACATATATTCA [CACACA_site8850]” was 7.35; that for “TTTATTTATTAATACACACACACACCCAGACAAAAT [CACACA_site4292]” was 7.79.
For the sequence “TATCTTTTTACAATAGTGCATATGTTATCATTAATA [GTGCAC_site9489]”, the “gcPBM binding intensity (ln)” value came to 8.59.
Take “AGATATATAAATATTACACACTATATATCTATTTAT [CACACA_site6466]”: the “gcPBM binding intensity (ln)” value is 6.82.
The value for “ATTTGCCCATTTAATTAACACACAAATGTTTATATT [CACACA_site8145]” was 7.28.
For “ATTATATACATTTTAGTGCATTACATAATAATATAA [GTGCAC_site9836]” the value was 9.17.
As for “GTATGCATTATATACACACATACATTTATATATTCT [CACACA_site115]”, the “gcPBM binding intensity (ln)” value is 7.02.
For “TTTCTTTTTTGATGCGTGCACATTTGTTTATTTTTC [GTGCAC_site9792]” the value was 9.67; for “AAAAAACGCACTCGTACACACATATTTTCTTTCTAA [CACACA_site3089]”, 8.76.
As to “TTAATTACACAAAAAAGTACTTGATATTGTTTATTA [XGTACX_site3449]”, the “gcPBM binding intensity (ln)” value stood at 6.85.
As for “ATATAATCAACTGCAAAGGTTTAAAAGGAAAAAATA [CACACA_negctrl_site989]”, the “gcPBM binding intensity (ln)” value is 6.79.
The value for “AATATTTACCAGAAAATAAAAATATGTATATATATA [CACACA_negctrl_site351]” was 8.24; that for “AATATTTATATTTACACACACATAATACATATATGT [CACACA_site33]” was 7.08; that for “TTTTTATTCAACAAAAATATCAAACATAATTATAAA [CACACA_negctrl_site616]” was 7.05.
For “ATTTTTATGTCTTTCTATAAATCGAAAATATACATA [CACACA_negctrl_site477]” the value was 7.03.
The value for “TTCCTTTAACCCTGCACACATACATACATTTATATG [CACACA_site3953]” was 7.61; that for “ATATACAACTAAAGAACACACATCATTGTTCATTGG [CACACA_site3681]” was 6.9; that for “TAAAATAGAAATATATGTACATATATATATGTATAT [XGTACX_site4134]” was 7.34.
